Data from ChEMBL document CHEMBL4888484, “Replenishing the malaria drug discovery pipeline: Screening and hit evaluation of the MMV Hit Generation Library 1 (HGL1) against asexual blood stage Plasmodium falciparum ,using a nano luciferase reporter read-out” (2022).
In all, about 150,000 compounds went through this assay and about 540 (0.36%) showed an effect of 50% or more. Some of the results follow.

System: Plasmodium falciparum
Assay: Primary screen in NF54 nanoGlo assay, in single point, at 2uM, 72h; a lower Z score goes with more inhibition
Format: functional, Erythrocyte
Conditions: timepoint 72 hour

Question: For `CC(=Cc1ccccc1)CN1CC[C@H](c2nccn2C)C1`, which “% Inhibition” value is on record?
Answer: -1%

Question: And the Z score?
Answer: 0.1

Question: How did the “% Inhibition” value turn out when `O=C(Nc1ccc(N2CCCC2=O)cn1)[C@@H]1C[C@H]2CC[C@@H]1O2` was run?
Answer: 3%

Question: And the Z score?
Answer: -0.37

Question: How did the “% Inhibition” value turn out when `COCCCn1c(NS(=O)(=O)c2ccc3ccccc3c2)c(S(=O)(=O)c2ccc(C)cc2)c2nc3ccccc3nc21` was run?
Answer: 57%

Question: And the Z score?
Answer: -8.33

Question: What does the source list for `O=C(CCCc1ccccc1)N1CC2CCCC(C1)C2O` (centres undefined)?
Answer: % Inhibition: -5%; Z score: 0.75

Question: What does the source list for `Cn1nc([C@@H]2CCCN2C(=O)CC2CCCC2)n(Cc2ccccc2)c1=O`?
Answer: % Inhibition: -15%; Z score: 1.99

Question: Which results are given for `CCc1nnc(CN2C[C@@H](CC(C)C)CC2=O)o1`?
Answer: % Inhibition: -13%; Z score: 2.42

Question: For `COCC1(c2noc([C@@H]3CCCS3(=O)=O)n2)CCCC1`, which “% Inhibition” value is on record?
Answer: -12%

Question: And the Z score?
Answer: 1.48

Question: `CCOC(=O)c1coc(N2CCC3(CC2)C[C@H](c2ccccc2)CN(C)C3)n1` was tested. Which “% Inhibition” value did it give?
Answer: -7%

Question: And the Z score?
Answer: 1.12

Question: Which results are given for `COc1cc(CNCCc2ccccc2F)ccc1OCc1nnnn1-c1ccc(C)cc1`?
Answer: % Inhibition: 38%; Z score: -1.16

Question: What does the source list for `CCc1ccc(C(=O)Nc2ccc3c(c2)NCCC3)o1`?
Answer: % Inhibition: -8%; Z score: 1.14

Question: Which results are given for `CN(CCn1cnnc1)c1ccc(C(F)(F)F)cn1`?
Answer: % Inhibition: -7%; Z score: 1.15

Question: Which “% Inhibition” value does the source give for `Cc1cc(C(=O)N2CC(Nc3cccnn3)C2)no1` here?
Answer: -15%

Question: And the Z score?
Answer: 1.78

Question: How did the “% Inhibition” value turn out when `Cc1cc(-c2c(-c3ccccc3)ncn2[C@H](CO)c2ccccc2)[nH]n1` was run?
Answer: -1%

Question: What about the Z score of the same compound?
Answer: 0.26

Question: Which results are given for `Cc1sc(NC(=O)c2cccs2)c([C@@H](c2ccc(F)cc2)N2CCCC2)c1C`?
Answer: % Inhibition: 2%; Z score: -0.38

Question: `COc1ccc(NC(=O)[C@@H]2COCC(=O)N2Cc2ccc(C)cc2)c(C)c1` was tested. Which “% Inhibition” value did it give?
Answer: 5%

Question: And the Z score?
Answer: -0.58

Question: Which results are given for `CC(C)CCNC(=O)c1ccc(CNS(=O)(=O)c2ccc(-c3cccc(F)c3)s2)cc1`?
Answer: % Inhibition: -1%; Z score: 0.18

Question: `N#CC1(NC(=O)c2cccc(S(=O)(=O)N3CC4CC5CC4C3C5O)c2)CCCC1` (centres undefined) was tested. Which “% Inhibition” value did it give?
Answer: 6%

Question: And the Z score?
Answer: -0.67

Question: `C[C@H]1CCCCN1C(=O)c1ccc(NCCC(=O)c2ccc3c(c2)OCO3)cc1` was tested. Which “% Inhibition” value did it give?
Answer: -5%

Question: And the Z score?
Answer: 0.59

Question: `CS(=O)(=O)c1ccc(-c2ccc3[nH]nnc3c2)cc1` was tested. Which “% Inhibition” value did it give?
Answer: -15%

Question: And the Z score?
Answer: 2.06

Question: For `COCCn1c(-c2ccc(C)cc2)cc(C(=O)N2CC3(C2)C[C@](C)(O)CO3)c1C`, which “% Inhibition” value is on record?
Answer: 0%

Question: What about the Z score of the same compound?
Answer: 0.05

Question: Which “% Inhibition” value does the source give for `O=C(NCC1CCN(Cc2cnc(N3CCOCC3)nc2)CC1)c1ccon1` here?
Answer: -5%

Question: And the Z score?
Answer: 0.95

Question: Which results are given for `O=C(c1ccccc1)N1CCC2(CC1)C[C@@H](N1CCOCC1)CCO2`?
Answer: % Inhibition: -7%; Z score: 1.42

Question: `CC(C)CN1C(=O)CC[C@@H](C(=O)Nc2ccc3c(c2)N(C)CCC3)[C@H]1C` was tested. Which “% Inhibition” value did it give?
Answer: -11%

Question: What about the Z score of the same compound?
Answer: 1.41

Question: Which “% Inhibition” value does the source give for `C#Cc1cccc(NC(=O)C(=O)N(CC)CCc2nccs2)c1` here?
Answer: -2%

Question: What about the Z score of the same compound?
Answer: 0.24

Question: Which “% Inhibition” value does the source give for `Cc1ccc(NC(=O)Cn2cc(S(=O)(=O)N3CCOCC3)ccc2=O)cc1` here?
Answer: -1%

Question: And the Z score?
Answer: 0.16

Question: Which “% Inhibition” value does the source give for `COCC[C@H]1CN(C(=O)c2cccn3cc(C)nc23)CCO1` here?
Answer: -9%

Question: And the Z score?
Answer: 1.7

Question: Which “% Inhibition” value does the source give for `O=S(=O)(Nc1ccc(-c2cc3ccccc3[nH]2)cc1)c1ccc2c(c1)CCCC2` here?
Answer: -21%

Question: And the Z score?
Answer: 1.87

Question: What does the source list for `COc1ncccc1[C@@H]1C[C@H](NC(=O)c2ccccc2)C[C@H](C(C)C)O1`?
Answer: % Inhibition: -6%; Z score: 1

Question: Which results are given for `CC(C)(C)[C@@H]1CCN(C(=O)c2cnc3ccccc3n2)CCO1`?
Answer: % Inhibition: -25%; Z score: 3.24

Question: How did the “% Inhibition” value turn out when `CCc1cccc(C)c1N1C[C@@H](C(=O)N(CC)C2CCOCC2)CC1=O` was run?
Answer: -6%

Question: What about the Z score of the same compound?
Answer: 1.1

Question: Which results are given for `CN1CCN(C(=O)CC[C@H]2CCCN(Cc3ccc4ccccc4c3)C2)CC1`?
Answer: % Inhibition: -7%; Z score: 1.17

Question: What does the source list for `COCCOc1ccc(NCc2cncs2)cc1F`?
Answer: % Inhibition: -7%; Z score: 0.93

Question: Which results are given for `CCN(Cc1ccccc1O[C@@H](C)C(=O)O)CC(F)(F)F`?
Answer: % Inhibition: -6%; Z score: 0.61

Question: Which results are given for `Cc1cccc2c1OCC(NC(=O)N1C[C@@H](C#N)[C@H](c3ccccc3)C1)C2` (some centres undefined)?
Answer: % Inhibition: -19%; Z score: 1.62

Question: How did the “% Inhibition” value turn out when `CCNC(=O)C(=O)NCc1ccc(Cl)cc1` was run?
Answer: 38%

Question: What about the Z score of the same compound?
Answer: -4.87

Question: What does the source list for `Cc1cnc(C(=O)NC[C@H]2CCCN(C/C=C/c3ccccc3)C2)cn1`?
Answer: % Inhibition: -13%; Z score: 2.64

Question: Which results are given for `Cc1nc(CCNC(=O)Cc2ccsc2)no1`?
Answer: % Inhibition: -8%; Z score: 1.02

Question: Which results are given for `COCCc1ccc(OCc2ccccc2-c2cnc(N)cn2)cc1`?
Answer: % Inhibition: -11%; Z score: 2.03

Question: With `Cc1ccccc1C(=O)NCCC(=O)N1CCCCCCC1` as the compound, how does the “% Inhibition” value read?
Answer: -2%

Question: And the Z score?
Answer: 0.32

Question: `Cc1ccc(NC(=O)OC(C)(C)C)c2c1N(C(=O)[C@H]1CCCO1)CCC2` was tested. Which “% Inhibition” value did it give?
Answer: -15%

Question: What about the Z score of the same compound?
Answer: 1.5

Question: Which “% Inhibition” value does the source give for `O=C1NCCCCC1NC(=O)N1CCCC1c1cccs1` (centres undefined) here?
Answer: -15%

Question: What about the Z score of the same compound?
Answer: 1.74

Question: Which “% Inhibition” value does the source give for `CC(C)[C@H](CNS(=O)(=O)c1ccc2c(c1)CC(C)(C)O2)C(=O)O` here?
Answer: -10%

Question: What about the Z score of the same compound?
Answer: 1.78
